Data taken from the supplement of paper PMC10338343.
± gives the standard deviation. The full ranking holds about 6,600 sequences; the median of “pre-steady-state target cleavage rate” is about 0.07, and the highest 2% start at about 0.72. The entries are a selection whose mix differs from that of the whole data set.

What follows are sequences tested on MIWI (PIWIL1) piRISC loaded with Kctd7 piRNA (30 nt) (assay: pre-steady-state target cleavage rate (min^-1); MIWI and MILI are mouse PIWI proteins and EfPiwi is from a freshwater sponge; tags in brackets are library labels; higher = faster piRNA-guided slicing of the target). Conditions: guide: Kctd7 piRNA 5'p-UGUUAAUCUCUCAGAGAAGGUGACAGUGAU; auxiliary factor: 500 nM mouse GTSF1.
Summary of the method: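 Cleave-'n-Seq used a transcribed, DNA-blocked target RNA library at 0.1 nM and active affinity-purified piRISC with one synthetic guide at 1 nM, with or without 500 nM GTSF1 partner protein, in HEPES–potassium acetate buffer at 33 °C for 0–8 or 0–960 min. Uncleaved targets were sequenced and normalised to depth and to weakly complementary targets, and three trials were pooled with k3 capped at 0.0001 min^-1. The pre-steady-state cleavage rate was estimated by a burst-and-steady-state fit.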

Sequence | pre-steady-state target cleavage rate
UAGUGUGUCACCUCCUCUGAGAGAUUAACA | 0.575 ± 0.033
UUCACUGUCACCUUCUCUGAGAGAUAUUCA | 0.366 ± 0.07
UAGUGUGUCACCUUCUCUGACUCAUUAACA | 0.0111 ± 0.0044
UAGUCUCUCACCUUCUCUGAGAGAUAUUGA | 0.00804 ± 0.0044
UACACUGUCACCUUCUACUGAGAGAUUAACA | 0.0919 ± 0.04
UAGUGACUCACCUUCUCAGAGACAUUAACA | 0.0427 ± 0.0055
UAGUGAGUCACCUUCUCAGAGAGAUUUACA | 0.122 ± 0.018
UACACAGUCACCUUCUCUGAGAGAUUAACA | 0.589 ± 0.038
UACACUGUCACGUUCUCUGAGAGAUUUACA | 0.245 ± 0.035
UAGUGACAGACCUUCUCUGAGAAGAUUAACA | 0.00788 ± 0.0039
AACACUGUCACCUUCUCUGACAGAUUAACA | 0.366 ± 0.021
AUCACUGUCACCAAGUCUGAGAGAUUAACA | 0.25 ± 0.024
UAGACUGUGUCCUUCUCUGAGAGAUUAACA | 0.504 ± 0.038
UAGACUGUCACCUUCUCUGUCAGAUUAACA | 0.00592 ± 0.0022
UACACAGUCACCUUGUCUGAGAGAUUAACA | 0.155 ± 0.023
UAGUGACAGUCCUUCUCUGAGAGAAAAACA | 0.00477 ± 0.0023
AUCAGUGUCACCUUCUCUGAGAGAUUAUGA | 0.0526 ± 0.017
UAGUGACAGACCUUCUCUGAGAGAGUAACA | 0.0502 ± 0.01
UAGUCUGUCACCUUCUCUGAGUGAUUAACA | 0.0351 ± 0.0074
UAGACUGUCACCUUCUCUGCGAGAUUAACA | 0.391 ± 0.028
UAGUGACAGUCCUUCUCUGAGAGAUUAGACA | 0.0176 ± 0.0041
UAGUGAGUCACCUUCACUGAGAGAUUAACA | 0.559 ± 0.046
UUCUCUGACACCUUCUCUGAGAGAUUAACA | 0.532 ± 0.021
UACACUGUGUGCUUCUCUGAGAGAUUAACA | 0.0294 ± 0.0055

Sequence | pre-steady-state target cleavage rate
AUCACUGUCUCCUUCUCAGAGAGAUUAACA | 0.374 ± 0.027
UAGUGAGAUCACCUUCUCUGAGAGAUUAACA | 0.499 ± 0.037
UAGUGACAGUGCUUCGCUGAGAGAUUAACA | 0.00389 ± 0.0031
AUCAGACUCACCUUCUCUGAGAGAUUAAGA | 0.159 ± 0.028
AUCACUGUCAGCUUCUCUGAGAGAUUAUGA | 0.0539 ± 0.011
UAGUCUGUCACCUUCUCUCAGAGUUUAACA | 0.0454 ± 0.009
UUCACUGUCACCCUUCUCUGAGAGAUUAACA | 0.543 ± 0.031
UAGUCUGUGUCCUUCUCUGAGAGAUUAUGA | 0.0165 ± 0.0054
UAGACUGUCACCUUCUCUGACUGAUUAACA | 0.00921 ± 0.0024
UAGUGACACACCUACACUGAGAGAUUAACA | 0.011 ± 0.0044
AUCACUGUCACCUUCUCUGAGAGAAAUAGA | 0.0401 ± 0.016
UACACUGUCACCUACUCAGAGAGAUUAACA | 0.118 ± 0.016
UUCACUGUGACCUUCUCUGAGAGAUUAUCA | 0.2 ± 0.028
UAGUGUGUCACCUUCUCUGAGCGAUUAACA | 0.195 ± 0.019
UAGUGACAGACCUUCACUGAGUGAUUAACA | 0.00667 ± 0.0033
UAGUGACUCACGUUCUCUGAGAGUUUAACA | 0.0255 ± 0.006
AUGUCUGUCACCUUCUCUGAGAGAUUAUGA | 0.0494 ± 0.013
UAGACUGUCUCCUUCUGUGAGAGAUUAACA | 0.527 ± 0.029
AUCACUGUCACCUUCUCUGAGACUAUAACA | 0.00561 ± 0.0031
UAGUGAGUCACCUUCUCUGAGAGAUUAACG [g2:g24:cont:t1G] | 0.622 ± 0.053
UAGUGACUCACCUUGACUGAGAGAUUAACA | 0.00915 ± 0.0025
UAGACAGUCUCCUUCUCUGAGAGAUUAACA | 0.433 ± 0.031
UAGUGACACACCUUCUCUGAGAGAUGAACA | 0.082 ± 0.017
UAGACUCUCACCUUCUCUGAGAGAUUAAGA | 0.15 ± 0.024

Sequence | pre-steady-state target cleavage rate
UAGUGUGUCACCUUCUCUGAGAUGAUUAACA | 0.0117 ± 0.0068
AUCACUCUCACCUUCUCAGAGAGAUUAACA | 0.364 ± 0.019
UAGUGUGUCACGUUCUCUGUGAGAUUAACA | 0.204 ± 0.016
AUCACUGUCACCUUCUCUGAGAGUUAACA | 0.663 ± 0.19
UAGUGUGUCACCUACUCUGAGAGAUAUUGA | 0.00515 ± 0.0043
UAGUGACAGUCCUAUCUCUGAGAGAUUAACA | 0.0261 ± 0.0026
UAGUGACUCACCUUACUCUGAGAGAUUAACA | 0.126 ± 0.011
UUCACUGUCACCUUCUCUGACGAGAUUAACA | 0.0334 ± 0.0098
UACACUGUCACCUUCCUGAGAGAUUAACA | 0.0783 ± 0.023
UAGUGUGUCACCUUCUUGAGAGAUUAACA | 0.0206 ± 0.0079
UACACUGUCACCUACUCUGAGAGAUUAUGA | 0.0508 ± 0.02
UUCUCUGUCACCUACUCUGAGAGAUUAACA | 0.546 ± 0.034
UUCACUGUCAGCUUCUCUGAGAGUUUAACA | 0.169 ± 0.021
UUCACUGUCACCUUCUCUAAGAGAUUAACA | 0.433 ± 0.019
AUCACACACACCUUCUCUGAGAGAUUUUGA | 0.106 ± 0.027
UAGUGACAGACCUUCACUGUGAGAUUAACA | 0.00717 ± 0.0025
UUGACUGUCACCUUCUCUGAGAGAUAUUGA | 0.00403 ± 0.003
UAGACUGUCACCUUCUCUGAGAGAUCAACA | 0.339 ± 0.034
UUCACUGUCACCUUCUCUGCGAGAUUAACA | 0.399 ± 0.031
UUCACUCUCACGUUCUCUGAGAGAUUAACA | 0.435 ± 0.029
UAGUCUGUCACGUUCUCUGAGAGAAUAACA | 0.222 ± 0.034
UAGUGACUGUCCUUCUCUGAGAGAUUAAGA | 0.0241 ± 0.0089
UAGACUGUCACCUUCUCUGUGAGAUUAUCA | 0.0862 ± 0.01
